In patent publication US5166348A, “Bornyl and isobornyl esters of carboxylic acids of condensed tetrahydroquinoxalines” (Uralsky politekhnichesky institut, priority 1989, dated 1992):

Columns and labels:
Assay type in all cases: in vivo
Conditions in all cases: for Virus titres (lg EID50): 1 mg/embryo; for log reduction at 1 mg/embryo: 48 h, read-out: Titre difference in control and experiment (lg EID50)
[1] = tested on: influenza virus A, A(Victoria)35/72/H3N2/; experiment: sensitivity of influenza virus A strain A(Victoria)35/72/H3N2/ in chick embryos
[2] = tested on: influenza virus A, A(Moscow)2813/86/H3N2/; experiment: sensitivity of influenza virus A strain A(Moscow)2813/86/H3N2/ in chick embryos
[3] = tested on: influenza virus A, A(Riga)9951/86/H3N2/; experiment: sensitivity of influenza virus A strain A(Riga)9951/86/H3N2/ in chick embryos
[4] = tested on: influenza virus A, A(Moscow)2878/86/H3N2/; experiment: sensitivity of influenza virus A strain A(Moscow)2878/86/H3N2/ in chick embryos
[5] = tested on: influenza virus A, A(Moscow)2848/86/H3N2/; experiment: sensitivity of influenza virus A strain A(Moscow)2848/86/H3N2/ in chick embryos

SMILES	Virus titres (lg EID50) [1] [lg EID50]	log reduction at 1 mg/embryo [1]	Virus titres (lg EID50) [2] [lg EID50]	log reduction at 1 mg/embryo [2]	Virus titres (lg EID50) [3] [lg EID50]	log reduction at 1 mg/embryo [3]	Virus titres (lg EID50) [4] [lg EID50]	log reduction at 1 mg/embryo [4]	Virus titres (lg EID50) [5] [lg EID50]	log reduction at 1 mg/embryo [5]
CC1=C(C(=O)OC2CC3CCC2(C)C3(C)C)C2Nc3ccccc3N(C)C2O1 (centres unmarked) [compound 1a, isobornyl ester of 2,9-dimethyl-3a,4,9,9a-tetrahydrofuro [2,3-b] quinoxaline-3-carboxylic acid]	4.0	2.25	4.75	2.5	4.5	1.5	4.0	4.2	4.5	3.5
CC(N)C12CC3CC(CC(C3)C1)C2 (centres unmarked) [remantadine, reference compound]	6.0	0.25	5.5	1.75	4.75	1.25	7.5	0.7	6.75	1.25
